Measurements taken from PubChem BioAssay AID1508623 (National Center for Advancing Translational Sciences (NCATS), 2021).
The whole screen tested about 48,000 compounds, of which about 450 (0.94%) were called active. Not shown: some 19% with an inconclusive outcome. Calls come from the whole dose curve; as a rule, active = well fitted inhibition curve with a large enough effect; inconclusive = small, poorly fitted or top-dose-only effect; inactive = no such curve, though single readings can be large or run the other way. This is one part of the list.

Assay: Primary qHTS for Identification of Small Molecule Inhibitors of Huntingtin Promoter Activity; note: nearly all actives have a fitted effect of over 50% in size
Settings: HEK293 HTT promoter firefly luciferase reporter (activity 0% = vehicle and -100% = no light), 24 h; series mostly up to 57.5 µM; activity change, negative = inhibition: at the top concentration
Summary of the method: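 Quantitative HTS used concentration series of up to 57.5 uM final on HEK293 luciferase reporter cells, 24 h at 37 degrees C. Readout was Dual-Glo firefly luminescence.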

Activity change, negative = inhibition, inactive:
CCOc1ccc(NC(=O)c2sc3nc4c(cc3c2N)CN(Cc2ccccc2)CC4)cc1 -24.2%
Cc1ccc(-n2nc(C(=O)Nc3ccc(Br)cc3C)c(=O)n(C)c2=O)cc1 -3.92%
COC(=O)c1ccc(NC(=O)C(=O)NCCc2csc(-c3ccc(C(F)(F)F)cc3)n2)cc1 -3.83%
COc1ccccc1CNC(=O)CSCc1nc(-c2ccc(OC)c(OC)c2)oc1C -20.2%
Cc1ccc(Cn2ccnc2SCC(=O)Nc2ccccc2C(F)(F)F)cc1 -4.28%
CCCn1c2ccccc2c2cnn(CC(=O)NCc3ccc(OC)cc3)c(=O)c21 -20.1%
COc1ccc(OC)c(NC(=O)CCn2cccn2)c1 0.361%
COc1ccccc1CNC(=O)C1CCN(S(=O)(=O)c2ccc3[nH]c(=O)ccc3c2)CC1 9%
CCOc1ccc(NC(=O)Cn2c(=O)n(Cc3ccco3)c(=O)c3ccc(C(=O)NC4CCCC4)cc32)cc1 -6.97%
CCc1nn(CC(=O)N2CCN(c3cccc(Cl)c3)CC2)c(=O)c2cc3sccc3n12 -13.1%
O=C(CCC1CCN(Cc2ccccc2)CC1)c1ccc2c(c1)NCCCC2 -18.1%
COc1cc(OC)c(NC(=O)Cn2c(SCc3ccccc3F)nc3cccnc32)cc1Cl -2.36%
Cc1ccccc1N=Nc1ccc(N=Nc2c(O)ccc3ccccc23)c(C)c1 2.4%
CCOc1ccc(NC(=O)Cn2nc(SC)c(S(=O)(=O)c3ccccc3)c2N)cc1 -33.8%
CC(=O)c1ccc(N2CCN(c3nc4ccccc4c4nc(-c5cccc(C)c5)nn34)CC2)cc1 3.2%
O=C(NCCCN1CCCCC1)c1[nH]c2ccccc2c1Sc1ccc(Cl)cc1 -26.2%
COC1CCC(C(=O)c2ccc3nc4c(cc3c2)CCCO4)CC1 (stereo unspecified) -13.4%
Cc1c(Cl)cccc1-n1ncc(C(=O)N2CCC(C)CC2)c1C1CCN(C(=O)OC(C)(C)C)CC1 -7.63%
CC(C)C(NS(=O)(=O)c1ccc2c(c1)oc(=O)n2C)C(=O)NCc1ccccc1 (stereo unspecified) -3.08%
CC(=O)c1ccc(N2CCN(C(=O)c3cc4c(s3)-c3ccccc3OC4)CC2)cc1 -2.07%
O=C(Nc1cccc(C(=O)OCc2cc(=O)n3c4c(sc3n2)CCCC4)c1)c1cccc(Cl)c1 10.5%
COc1cccc(NC(=O)Cn2nnc(C(=O)NCCc3ccccc3)c2N)c1 6.69%
Cc1nc(-c2ccc(S(=O)(=O)N(Cc3ccccc3)C(C)C)cc2)co1 -21.6%
COc1ccc(CCn2c(=O)c3cccnc3n(CC(=O)Nc3ccc(C)cc3C)c2=O)cc1OC 1.57%
Cn1cc(C(=O)Nc2ccc(C#N)cc2)c2ccccc2c1=O -28.5%
CCOc1ccc(CCNC(=O)c2ccc3c(c2)nc2n3CCOC2)cc1OCC -12.6%
CC(C)OCCCNC(=O)CCCn1c(SCC(N)=O)nc2c(sc3ccccc32)c1=O -12.7%
CN(C(=O)c1c2c(nc3ccccc13)C(=O)N(C1CCCCC1)C2)c1ccc(F)cc1 -21.3%
Cc1ccc(S(=O)(=O)NCCc2csc3nc(-c4ccccc4F)nn23)cc1C -35.9%
COc1cccc(-c2nc(SCc3ccc(C)cc3)n3[nH]c(=O)cc3n2)c1 -0.158%
CC(NC(=O)C1CCN(S(=O)(=O)c2ccc3c(c2)oc(=O)n3C)CC1)c1ccccc1 (stereo unspecified) -12%
O=[N+]([O-])c1ccc(S(=O)(=O)N2CCn3cccc3C2c2ccccc2F)cc1 (stereo unspecified) -24.5%
Cc1ccc(C)c(N2CCN(c3nc4ccc(Cl)cc4n4cnnc34)CC2)c1 -22%
Cc1ccccc1OCc1nnc(SCc2cc(=O)c3ccc(C)c(C)c3[nH]2)n1C -0.0075%
Cc1ccc(-c2cc3c(n2-c2ccc(F)cc2)CC(C)(C)CC3=O)cc1 -4.04%
Cc1cccc(NC(=O)CSc2nc3ccccc3c3nc(CCc4c(C)n[nH]c4C)nn23)c1 0%
CCOC(=O)c1cccc(NC(=O)CSc2nc3cc4ccccc4cc3[nH]2)c1 -3.5%
CC(C)c1cnc2c(c1SCC(=O)O)c(=O)n(C)c(=O)n2C 2.12%
CC(=O)Nc1ccc(NC(=O)c2cnn(-c3ccccc3)c2C2CCN(C(=O)OC(C)(C)C)CC2)cc1 -1.77%
O=C(CNC(=O)c1ccccc1F)OCc1cc(=O)n2nc(C3CC3)sc2n1 -10.8%
CCOc1ccccc1Nc1nnc(-c2cc3cc(Cl)ccc3oc2=O)s1 -14.8%
COc1cc(OC)cc(C(=O)Nc2ccc3c(c2)OCCO3)c1 50.8%
CC(NC(=O)c1cc2ccccc2o1)c1ccccc1 (stereo unspecified) -29.1%
CCOc1ccc(NC(=O)CSC2=Nc3ccccc3C3=NC(Cc4ccccc4)C(=O)N23)cc1 (stereo unspecified) -29.9%
CCOC(=O)c1c(C)[nH]c(C)c1S(=O)(=O)N1CCCC(C(=O)Nc2cccc(C)n2)C1 (stereo unspecified) -19.5%
COc1ccc(-c2nc3sc(CCNC(=O)C(=O)Nc4ccc(C)c(F)c4)c(C)n3n2)cc1 -36.6%
CCCn1nc(NC(=O)c2cccc(Cl)c2)c2cc3cccc(C)c3nc21 -7.03%
CCc1ccc(S(=O)(=O)c2cn(C)c3cc(F)c(F)cc3c2=O)cc1 -25.5%
Cc1ccc(NC(=O)Cn2c(-c3nonc3N)nc3ccccc32)cc1C -1.36%
COc1ccccc1CN1CCN(C2CCN(C(=O)Nc3ccccc3)CC2)C(=O)C1=O 15.5%
NC(=O)C1CCCc2c1[nH]c1ccc(Cl)cc21 (stereo unspecified) -15%
CC(Nc1ccc(-c2nc(-c3ccco3)no2)cc1[N+](=O)[O-])c1ccccc1 (stereo unspecified) 13.3%
CC(C)(C)C(=O)Nc1cccc(C(=O)OCc2cc(=O)n3nc(C4CC4)sc3n2)c1 -11.7%
Cc1ccccc1NC(=O)CCNC(=O)Cn1ccc2ccccc2c1=O 0.579%
COc1cc(NC(=O)c2cc3ccc4cccnc4c3[nH]2)cc(OC)c1OC 12.7%
CCOC(=O)c1ccc(NC(=O)CSc2nc(-c3cccs3)cc(C(F)(F)F)c2C#N)cc1 -20.8%
CCS(=O)(=O)c1nc(S(=O)(=O)c2ccc(C)cc2)c(NCC(C)C)s1 -17.7%
CCOC(=O)N1CCc2c(sc(NCc3sccc3C)c2C(=O)Nc2cc(Cl)ccc2OC)C1 -13.4%
Cc1ccc(NC(=O)N2CCN(Cc3nc4ccc(C)cc4o3)CC2)c(Cl)c1 -32.8%
Cc1cc(C)n(-c2nc(C)c(C)c(=O)n2CC(=O)Nc2ccc(Cl)c(Cl)c2)n1 -10.3%
COc1ccc(-c2nnc(SCC(=O)Nc3cccc(Cl)c3C)nc2-c2ccc(OC)cc2)cc1 -2.2%
Cc1cc(C)c(NC(=O)Cn2nnc(C(=O)Nc3ccc(F)cc3F)c2N)c(C)c1 -1.28%
CC(=O)Nc1ccc(NC(=O)c2c(C)nn(-c3ccccc3)c2-n2cccc2)cc1 -22.2%
Cc1ccc(CNc2ncnc3c2cnn3-c2ccc(C)cc2C)cc1 -14%
Cc1ccc(CNC(=O)c2ccc3c(c2)nc2n3CCCC2)cc1 41.1%
CCc1nn2c(=O)cc(COC(=O)C3CCCCC3)nc2s1 -14.2%
COc1cccc(NC(=O)c2nnn(Cc3ccc(OC)c(Br)c3)c2N)c1 -24.9%
CCOC(=O)c1cc(-c2ccccc2)n(CCCC(=O)Nc2ccc(C)cc2Cl)c1C -37.9%
COc1ccc(CNC(=O)C2CCN(S(=O)(=O)c3ccc4nc5c(c(C(=O)O)c4c3)CC(C)CC5)CC2)cc1 (stereo unspecified) -17.6%
COc1cc(-c2noc(C3CC(=O)N(c4cc(C)ccc4C)C3)n2)cc(OC)c1OC (stereo unspecified) -23.6%
CCOc1ccc(NC(=O)Cn2cnc3c(oc4ccccc43)c2=O)cc1 -5.67%
CC(C)(C)OC(=O)N1CCC(c2c(C(=O)NCc3ccccn3)cnn2-c2ccc(F)cc2)CC1 -10.4%
COc1ccc2c(c1)c1c(c(=O)n(-c3cccc(C)c3)c(=O)n1CC(=O)N1CCCC1)n2C -5.93%
Cc1cc(C)c2c(=O)cc(C(=O)Nc3ccc(S(=O)(=O)Nc4onc(C)c4C)cc3)oc2c1 6.51%
Cc1ccc2c(=O)cc(C(=O)Nc3c(C(=O)c4ccccc4)oc4ccccc34)oc2c1C 9.57%
COC(=O)[C@H](Cc1ccccc1)NC(=O)[C@@H](N)CC(=O)O
CCN1C(=O)c2ccccc2Sc2ccc(NC(=O)Cc3ccc(OC)cc3)cc21 -10%
COc1ccc(-c2cc(-c3ccccc3)nc3c2COc2ccccc2-3)cc1 -4.62%
CC(C)CC(=O)Nc1nnc2n1CCS2 -5.63%
COc1ccc(-n2nnc(C(=O)Nc3ccccc3F)c2N)cc1 31.4%
CCc1ccccc1N(c1nc(-c2ccc(OC)c(OC)c2)no1)c1nc(-c2ccc(OC)c(OC)c2)no1 -25.2%
COc1cccc(NC(=O)C(=O)NCCc2csc3nc(-c4ccccc4C)nn23)c1 -6.53%
COC(=O)c1c(NC(=O)c2nc(SC)ncc2Cl)sc2c1CCCC2 -18.1%
CC(=O)NCc1nc2cccnc2n1Cc1ccccc1 -5.21%
CC(=O)c1cc(-c2ccccc2)n(CCC(=O)NCCc2ccccc2)c1C -23.8%
Cc1cccc(CCNC(=O)c2ccc3c(c2)nc2n3CCCCC2)c1 12%
Cc1nc2c(-c3ccc(F)cc3)c(C)nn2c(C)c1CCC(=O)N1CCN(c2ccc(F)cc2)CC1 -13.5%
Cc1oc(-c2cccc(Cl)c2)nc1CSc1nnc(C)n2c1cc1occc12 -0.294%
COc1ccccc1N1CCN(C(=O)Cn2cnc3sc(C)c(S(=O)(=O)N4CCC(C)CC4)c3c2=O)CC1 -5.52%
CCc1cccc(C)c1NC(=O)Cn1c(=O)n(-c2cccc(C)c2)c(=O)c2c1c1cc(C)ccc1n2C 9.99%
COc1ccc(Cl)cc1N(C)C(=O)Cc1noc2ccc(C)cc12 -26.1%
C/C(=C1\CCOC(=O)S1)N(C=O)Cc1cnc(C)nc1N -0.942%
CCOC(=O)c1cc(NC(=O)c2ccc(OC)cc2)c(=O)n2c1oc1ccc(Cl)cc12 -2.38%
CCn1c(CNC(=O)C23CC4CC(CC(C4)C2)C3)nnc1SCC(=O)Nc1ccc(F)cc1 -27.8%
CC1Cc2ccccc2N1C(=O)CSc1nnc(-c2cccc(Cl)c2)o1 (stereo unspecified) 12.9%
O=c1[nH]c2ccc(NCc3ccccc3F)cc2[nH]1 -1.38%
